# Source: publication PMC4336329 (PLoS ONE, 2015)
# Hit rate of the full screen: of about 310,000 compounds, about 2,200 (0.71%) showed an effect of 50% or more. Effects have a minus sign here. Some of the results follow.
# Biological target: human ether-à-go-go-related gene (hERG) potassium channel (human, UniProt Q12809)
# Assay: primary screen, population patch clamp on CHO cells stably expressing hERG
# Sequence of human ether-à-go-go-related gene (hERG) potassium channel (Q12809 whole entry, looked up): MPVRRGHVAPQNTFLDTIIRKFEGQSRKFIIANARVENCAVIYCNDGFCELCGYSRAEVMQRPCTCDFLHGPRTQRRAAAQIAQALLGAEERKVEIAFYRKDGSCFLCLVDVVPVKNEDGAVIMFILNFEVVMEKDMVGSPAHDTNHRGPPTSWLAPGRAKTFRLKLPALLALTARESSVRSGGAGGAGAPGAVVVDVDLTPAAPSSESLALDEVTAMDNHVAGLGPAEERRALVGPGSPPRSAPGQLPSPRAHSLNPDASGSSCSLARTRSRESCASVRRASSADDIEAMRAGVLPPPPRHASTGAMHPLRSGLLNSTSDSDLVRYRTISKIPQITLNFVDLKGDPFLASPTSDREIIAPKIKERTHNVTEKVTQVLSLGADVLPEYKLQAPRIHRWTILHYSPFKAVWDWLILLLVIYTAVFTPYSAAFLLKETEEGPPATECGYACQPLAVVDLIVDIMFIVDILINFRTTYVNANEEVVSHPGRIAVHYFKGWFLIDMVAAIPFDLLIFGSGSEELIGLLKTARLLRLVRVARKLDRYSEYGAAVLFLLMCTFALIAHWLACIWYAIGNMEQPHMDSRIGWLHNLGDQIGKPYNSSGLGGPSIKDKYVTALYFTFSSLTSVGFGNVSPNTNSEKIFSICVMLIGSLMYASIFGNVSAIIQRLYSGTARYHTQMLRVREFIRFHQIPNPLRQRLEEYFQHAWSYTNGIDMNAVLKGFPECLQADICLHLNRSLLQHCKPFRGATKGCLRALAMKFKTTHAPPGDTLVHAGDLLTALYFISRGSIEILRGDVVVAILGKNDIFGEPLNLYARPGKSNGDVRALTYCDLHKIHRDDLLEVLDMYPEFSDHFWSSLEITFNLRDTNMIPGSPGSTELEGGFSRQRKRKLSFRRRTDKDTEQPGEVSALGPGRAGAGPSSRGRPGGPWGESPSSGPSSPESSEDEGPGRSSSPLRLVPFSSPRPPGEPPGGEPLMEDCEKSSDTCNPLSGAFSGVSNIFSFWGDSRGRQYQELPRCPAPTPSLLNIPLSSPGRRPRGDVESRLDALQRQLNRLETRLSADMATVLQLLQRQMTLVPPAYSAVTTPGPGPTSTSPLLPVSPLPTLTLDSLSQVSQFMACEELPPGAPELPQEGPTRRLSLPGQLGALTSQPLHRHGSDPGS
row,Structure (SMILES),"hERG current change (%, negative = inhibition) at 1uM"
1,NS(=O)(=O)c1ccc(CCNC(=O)Cc2cccs2)cc1,8.92%
2,COc1ccc(/C=C2\Sc3ccc(C(=O)N4CCOCC4)cc3N(C)C2=O)cc1,5.95%
3,CCOC(=O)C1(Cc2ccc(OC)cc2)CCN(S(C)(=O)=O)CC1,7.04%
4,O=C1c2cccnc2C(Nc2cccc(F)c2)N1Cc1ccco1 (centres unmarked),8.54%
5,Cc1[nH]c2ccccc2c1/C=N/NC(=O)CNC(=O)c1ccco1,18%
6,CC(=O)c1c(C)[nH]c(C(=O)OCC(=O)N(C)c2c(N)n(Cc3ccccc3)c(=O)[nH]c2=O)c1C,-11.1%
7,CC(C)Sc1nc(-c2ccccc2)cc(=O)[nH]1,10.1%
8,Cc1ccc(C)c(NCC(=O)NNC(=S)Nc2ccccc2)c1,15%
9,CCS(=O)(=O)c1ccc(-c2csc(-c3ccccc3)n2)c(Cl)c1Cl,12.1%
10,O=C1C(Cc2ccccc2)C(c2ccccc2)N1c1ccccc1 (centres unmarked),-0.202%
11,CCCOC(=O)Nc1ccc([As](=O)(O)O)cc1NC(=O)OCCC,13.7%
12,C=CCNC(=S)NNC(=O)c1ccc(=O)n(Cc2ccc(Cl)cc2Cl)c1,12.1%
13,[N-]=[N+]=NC(c1ccccc1)c1nc2ccccc2[nH]c1=O (centres unmarked),4.3%
14,NC(=O)CC(NC(=O)c1ccc(Cl)cc1)C(=O)NCCc1ccc(S(N)(=O)=O)cc1 (centres unmarked),16.1%
15,Cc1ccc(C(=O)N/N=C\c2cccc(OC(=O)c3cccc(F)c3)c2)cn1,13.5%
16,Cc1cc(C)n(-c2cc(Cl)cc(Cl)c2)c(=O)c1C#N,16.5%
17,CC(C)(C)CC(=O)NCCCN1CCOCC1,9.12%
18,Cc1ccc2c(CC(=O)OC3CCOC3=O)coc2c1 (centres unmarked),7.2%
19,CCOC(=O)N1CCN(S(=O)(=O)c2cc(Br)cc3c2N(C(C)=O)C(C)C3)CC1 (centres unmarked),2.9%
20,COc1ccc(C(=O)Nc2cccc(-c3ccc(N4CCOCC4)nn3)c2)cc1OC,11.4%
21,O=C(CN1CCSC1=O)N1CCN(S(=O)(=O)c2ccccc2)CC1,6.72%
22,CC(C)(C)NC(=O)Cn1cnc2cc([N+](=O)[O-])ccc2c1=O,1.24%

row,Structure (SMILES),"hERG current change (%, negative = inhibition) at 1uM"
1,O=C(NC1CCCCC1)N1CCC(c2nc(-c3ccc(S(=O)(=O)N4CCCC4)cc3)no2)CC1,-8.43%
2,O=C(NC1CCCCC1)C(c1ccc(F)cc1)N(Cc1ccco1)C(=O)CN1C(=O)c2ccccc2S1(=O)=O (centres unmarked),-0.847%
3,COC(=O)Cn1ncn2cccc2c1=O,12%
4,COc1cccc(CN(CC2CCCO2)S(=O)(=O)c2ccc(S(=O)(=O)N(C)C)cc2)c1 (centres unmarked),7.5%
5,CC1CN(C(=S)Nc2ccc(F)cc2F)CC(C)O1 (centres unmarked),11.3%
6,CN(c1ccccc1C(=O)O)S(=O)(=O)c1ccc2[nH]c(=O)[nH]c2c1,16.3%
7,COn1c(-c2ccccc2)nc2c1CCc1c-2no[n+]1[O-],8.78%
8,O=C(NCc1ccccn1)C1CC(c2ccccc2O)=NO1 (centres unmarked),13%
9,CCOc1ccc(C(=O)NCC(=O)OCc2csc(-c3ccccc3)n2)cc1,11.3%
10,O=C(N/N=C\c1cn(-c2ccccc2)nc1-c1ccccc1)c1ccc2c(c1)OCO2,13.4%
11,Cc1ccc(S(=O)(=O)Nc2c(C)n(C)n(-c3ccccc3)c2=O)c(C)c1,10.7%
12,Cc1ccc(S(=O)(=O)NCCC(=O)N2CC(C)OC(C)C2)cc1C (centres unmarked),9.3%
13,COc1cc2nc(NC(=O)c3ccc(F)cc3Cl)sc(=O)c2cc1OC,14.7%
14,O=C(NC1CCCCCC1)C1c2ccccc2C(=O)N1Cc1cccnc1 (centres unmarked),2.1%
15,N#Cc1ccc(OCC(=O)N2CCCC2=O)cc1,10.8%
16,C=CCc1cccc(/C=N/NC(=O)COc2ccc(-n3cnnn3)cc2)c1O,12.2%
17,O=C(CN1C(=O)c2ccccc2S1(=O)=O)Nc1cccnc1,7.85%
18,C=CCn1ncc(OC)c(Cl)c1=O,4.03%
19,O=C(Nc1ccc(F)cc1)C(=O)c1c(O)[nH]c2ccc([N+](=O)[O-])cc12,6.67%
20,Cc1ccc(S(=O)(=O)N2CCC(NC(=O)c3cccc(F)c3)CC2)cc1,9.79%
21,CC(C)(C)c1ccc(S(=O)(=O)NC(Cc2ccccc2)C(=O)O)cc1 (centres unmarked),8.88%
22,Cc1nn(CC(=O)NC2CCS(=O)(=O)C2)c(C)c1S(=O)(=O)N(C)C (centres unmarked),-3.45%
